Article PMC6919601, “Identification of Plasmodium dipeptidyl aminopeptidase allosteric inhibitors by high throughput screening” (PLoS ONE, 2019)
Out of some 110,000 compounds screened, about 230 (0.21%) showed an effect of 50% or more. The list shows a part of the results.

Target: DPAP1 (Plasmodium falciparum, UniProt Q8IIJ9)
Experiment: primary screen, percent inhibition; read by cleavage of a fluorogenic dipeptide substrate; higher = more effect of the substance
Design: species or system P. falciparum D10 trophozoite lysates; single well
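Also: 30 min substrate incubation versus DMSO and 10 µM JCP410 controls.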

Sequence of DPAP1 (Q8IIJ9 whole entry, looked up): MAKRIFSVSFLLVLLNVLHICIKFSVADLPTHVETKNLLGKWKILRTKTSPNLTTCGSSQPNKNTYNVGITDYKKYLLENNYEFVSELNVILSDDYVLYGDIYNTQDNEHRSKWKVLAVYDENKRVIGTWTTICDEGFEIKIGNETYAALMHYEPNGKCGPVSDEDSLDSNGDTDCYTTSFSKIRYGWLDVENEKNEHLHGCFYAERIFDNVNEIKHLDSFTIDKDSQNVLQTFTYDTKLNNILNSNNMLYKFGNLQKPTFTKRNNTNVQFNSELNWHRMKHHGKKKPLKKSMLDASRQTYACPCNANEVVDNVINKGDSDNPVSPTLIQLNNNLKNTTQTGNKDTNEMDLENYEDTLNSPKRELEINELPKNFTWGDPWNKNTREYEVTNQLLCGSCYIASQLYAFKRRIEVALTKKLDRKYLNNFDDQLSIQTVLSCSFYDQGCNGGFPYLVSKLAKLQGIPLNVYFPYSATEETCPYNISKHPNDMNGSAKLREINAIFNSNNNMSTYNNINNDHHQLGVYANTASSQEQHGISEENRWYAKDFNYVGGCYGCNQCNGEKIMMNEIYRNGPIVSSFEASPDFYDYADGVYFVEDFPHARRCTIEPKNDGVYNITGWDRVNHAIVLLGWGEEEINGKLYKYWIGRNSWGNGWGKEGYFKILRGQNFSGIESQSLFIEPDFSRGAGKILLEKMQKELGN

Row | Structure (SMILES) | % Inhibition @ 10 uM
1 | CC(C)(C)NC(=O)CS(=O)(=O)c1ccc2ccccc2c1 | 4.61%
2 | O=C(NCCCN1CCOCC1)c1cc(-c2ccc(Cl)s2)nc2ccccc12 | -2.8%
3 | CCOc1ccc(C(=O)c2cnc3ccc(C)cc3c2N2CCN(CC)CC2)cc1 | -1.38%
4 | c1cnc(Nc2nc(-c3cccnc3)cs2)nc1 | 4.96%
5 | CC(=O)N[C@H]1[C@H](Oc2ccccc2)O[C@@H]2COC(c3ccccc3)O[C@H]2[C@@H]1O (stereo partly shown) | -0.0235%
6 | Cc1ccsc1CCNC(=O)c1cc(-c2ccc(Cl)cc2)[nH]n1 | -2%
7 | CCOC(=O)C1=C(C)N(CC(C)C)C(=O)/C1=C\c1ccc(OC)cc1 | -7.18%
8 | COc1ccc(OC)c(C2CC(=O)Nc3c2c(C)nn3-c2nc(C)cc(C)n2)c1 (stereo not shown) | 2.25%
9 | CC(C)NCC(O)Cn1c2ccc(Br)cc2c2cc(Br)ccc21 (stereo not shown) | -0.48%
10 | Cc1nn(CC(=O)NC2CCCc3ccccc32)c(=O)c2cc3cc(F)ccc3n12 (stereo not shown) | 3.29%
11 | CCOc1ccccc1/C=C(\C#N)c1nc(-c2ccc(Cl)cc2)cs1 | 7.24%
12 | Cc1cccn2c(=O)c3cc(S(=O)(=O)c4ccccc4)c(=N)n(Cc4ccccc4)c3nc12 | 29.6%
13 | COc1cccc(NC(=O)C2CCCCC2C(=O)O)c1 (stereo not shown) | 1.96%
14 | NC(=O)c1c(NC(=O)c2ccc(Cl)cc2Cl)sc2c1CCCC2 | -5.31%
15 | CC(O)CN(Cc1ccccc1Br)CC(C)O (stereo not shown) | 0.0792%
16 | Nc1c(C(=O)c2ccc(F)cc2)oc2ccc(Cl)cc12 | -4.4%
17 | CCC1NC(=O)c2ccccc2N1c1cccc(Cl)c1 (stereo not shown) | -2.1%
18 | Cc1cccn2c(=O)c(/C=C(\C#N)C(=O)N3CCOCC3)c(Oc3ccccc3)nc12 | 2%
19 | CCOC(=O)c1[nH]c(C)c(C(=O)c2c(F)cccc2Cl)c1C | -2.32%
20 | O=C(O)C1CSC(c2cccc3ccccc23)N1 (stereo not shown) | -0.216%
21 | Cn1c(SCC(=O)c2c[nH]c3ccccc23)nnc1C1CCCCC1 | 0.032%
22 | COc1cccc(C(=O)NCCC(C)C)c1 | 32.1%
23 | CCOC(=O)c1ccc2nc(C(F)(F)F)nc(NCCCN3CCCC3=O)c2c1 | -1.11%
24 | Nc1c(NCCO)c2ccccc2oc1=O | 0.815%
25 | COc1ccc(C2CC(C(F)(F)F)n3ncc(C(=O)Nc4ccccc4SC)c3N2)cc1 (stereo not shown) | 2.7%

Row | Structure (SMILES) | % Inhibition @ 10 uM
26 | c1cn2c3c(n1)CCCc3c1cc(C3CCCCC3)ccc12 | -0.128%
27 | Cc1cc(-c2ccccc2)c(C#N)c(N)n1 | -3.58%
28 | CCC(C)NC(=O)c1cc(-c2ccc(OC)cc2)on1 (stereo not shown) | 1.37%
29 | CCC(=O)Nc1nc(-c2ccc(OC)c(Br)c2)cs1 | -1.81%
30 | COc1ccc(NS(=O)(=O)c2ccc(N/C=C3/C(=O)NC(=O)N(c4ccccc4)C3=O)cc2)cc1 | -4.41%
31 | COc1ccc(C2(O)C[N+](c3ccccc3OC)=C3CCCCN32)cc1 (stereo not shown) | 6.14%
32 | COc1ccc(NC(=O)CCC2CCCCC2)cc1 | -4.01%
33 | Fc1ccc(N2CC(c3ccc(Cl)cc3Cl)C(c3cccs3)=N2)c(F)c1 (stereo not shown) | -3.04%
34 | COc1cccc(NC(=O)c2c(-c3c(Cl)cccc3Cl)noc2C)c1 | -3.69%
35 | O=C(COc1ccc(S(=O)(=O)NC2CCCCC2)cc1)NC1CC1 | -2.09%
36 | COc1ccc(OC)c(C2CC(=O)C3=C(C2)NC(=O)CC3c2c(F)cccc2Cl)c1 (stereo not shown) | -4.16%
37 | O=C(CCCC(=O)c1ccccc1)Nc1ccc(Cl)cn1 | -3.21%
38 | O=C1NC(=O)C2C1C1(c3ccccc3)NC2(c2ccccc2)C2C(=O)NC(=O)C21 (stereo not shown) | 1.61%
39 | CN1CCN(CC(=O)N2CCCC2=O)CC1 | 0.986%
40 | CCOC(=O)c1c(CN2CCN(C)CC2)n(Cc2ccccc2)c2cc(Br)c(O)cc12 | 3.34%
41 | CCC(C)c1ccccc1OCC(=O)Nc1cc(OC)ccc1OC (stereo not shown) | -3.26%
42 | CCOc1ccccc1N1C(=O)c2ccc(S(=O)(=O)c3ccc(C(=O)O)cc3)cc2C1=O | 7.03%
43 | Cc1ccc(C)c(Cn2nnc(C(=O)NCCc3ccc(Cl)cc3)c2N)c1 | 1.26%
44 | CCCCNC(=O)N1CCc2ccccc2C1 | 2.17%
45 | COc1ccc(OCC(=O)N2c3ccccc3C(Nc3ccccc3)CC2C)cc1 (stereo not shown) | 3.09%
46 | Cn1cc(S(=O)(=O)N2CCOCC2)cc1C(=O)NC1CCCc2ccccc21 (stereo not shown) | -3.42%
47 | Cc1nc(NC(=O)c2ccc(Br)cc2)sc1C(=O)N(C)C | 8.71%
48 | COc1ccc(Cl)c(Cn2c(NC3CCCCC3)nc3c2c(=O)n(C)c(=O)n3C)c1 | -3.24%
49 | CC1(C)CC(=O)C2=C(C1)N(CCc1ccccc1)C(=O)C2(NC(=O)c1ccco1)C(F)(F)F (stereo not shown) | -1.72%
50 | CC(=O)N1C(=N)S/C(=C/c2cc3ccc(C)cc3nc2N2CCOCC2)C1=O | 1.96%

Row | Structure (SMILES) | % Inhibition @ 10 uM
51 | CC(NC(=O)Cn1cccc1C(=O)c1ccccc1)c1ccc2c(c1)OCCO2 (stereo not shown) | -0.522%
52 | CCc1ccc(OCC(=O)N(Cc2cccc(F)c2)Cc2ccco2)cc1 | -1.07%
53 | Cc1cc(-c2ccc(S(=O)(=O)N3CCN(C)CC3)cc2)on1 | -1.48%
54 | CCCCN(C)CCCNC(=O)C1CC(=O)N(Cc2ccc(OC)cc2)C1 (stereo not shown) | 3.24%
55 | CCC(C)NC(=O)c1cc2cc3ccc(C)cc3nc2s1 (stereo not shown) | 0.128%
56 | CCc1ccc(C2=CC(c3cc(OC)c(OC)c(OC)c3)n3ncnc3N2)cc1 (stereo not shown) | 3.32%
57 | O=C(COc1ccc(Cl)cc1Cl)N1CCC(Cc2ccccc2)CC1 | 1.38%
58 | CC1(C)NC(=O)N(CN2CCN(CN3C(=O)NC(C)(C)C3=O)CC2)C1=O | -1.3%
59 | CC1(C)COC(c2cccn2Cc2ccc(F)cc2)=N1 | 3.48%
60 | CC(NC(=O)C1CCCN1C(=O)OCc1ccccc1)c1ccccc1 (stereo not shown) | -2.45%
61 | CCCCNCc1c(C(=O)O)c(C)n(Cc2cc(C)ccc2C)c1C | -0.23%
62 | COc1ccc(N(CC(=O)N(C)C)S(=O)(=O)c2ccc(C)cc2)c(OC)c1 | 0.324%
63 | Nc1c(Cl)cc(-c2nc3ccccc3o2)cc1Cl | 6.79%
64 | Cc1ccc(CNC(=O)C2CCCN(c3cnccn3)C2)cc1 (stereo not shown) | 3.88%
65 | Cc1ccnc(NC(c2ccccc2Cl)c2ccc3cccnc3c2O)c1 (stereo not shown) | -10.8%
66 | CCOC(=O)c1oc2ccc(S(=O)(=O)Nc3c(C)nc4ncnn4c3O)cc2c1C | -1.68%
67 | CCc1ccc(-c2nc(SCC(=O)NCC3CCCO3)c(-c3ccc(OC)c(OC)c3)[nH]2)cc1 (stereo not shown) | 1.85%
68 | CCN(CC)C(=O)C1CCCN(Cc2ccc(OC)c(Br)c2)C1 (stereo not shown) | -1.98%
69 | N#CCNC(=O)[C@H](Cc1cc(Cl)c(O)c(Cl)c1)NC(=O)c1ccc(F)cc1F | -6.46%
70 | O=C(Nc1cnc2ccccc2c1)c1ccc2ccccc2c1 | 0.238%
71 | N#Cc1c[nH]nc1NCc1ccc2c(c1)OCO2 | -2.05%
72 | COc1ccc(C2CC(C(F)(F)F)n3nc(C(=O)NC(C)C)c(Cl)c3N2)cc1 (stereo not shown) | 2.44%
73 | Cc1ccccc1N1C(=O)CC(c2cn(C)c3ccccc23)C1=O (stereo not shown) | 1.92%
74 | CN1C(=O)/C(=C/c2ccc(Cl)cc2Cl)N=C1SCC(=O)NCc1ccccc1 | 1.03%
75 | CCn1c(C)[n+](CC)c2cc(C(=O)N(C)C)ccc21 | -0.615%

Row | Structure (SMILES) | % Inhibition @ 10 uM
76 | CSc1nc2c(c(-c3ccccc3)c1C#N)CCC2 | 5.18%
77 | CCN(CC)CCOC(=O)c1c(C)nc2n(C)c3ccccc3n12 | 3.74%
78 | CCN1CCC2(CC1)OC(=O)C(C)=C2C(=O)NCCCOC(C)C | 4.11%
79 | Cc1ccc(Cn2c(-c3nonc3N)nc3ccccc32)cc1 | 4.1%
80 | O=C(C1CCN(S(=O)(=O)c2c[nH]cn2)CC1)N(CCc1ccccc1)Cc1ccccc1 | 2.9%
81 | COC(=O)c1cc(-c2cccc(OC)c2)[nH]n1 | 3.87%
82 | O=C(CCNS(=O)(=O)c1ccc(Cl)cc1)N1CCN(Cc2ccccc2)CC1 | 2.05%
83 | CCCN1CCN(C(=O)c2nn(C)c3c2CSc2ccccc2-3)CC1 | 1.68%
84 | N#CC1=C(N)Oc2ccc3ccccc3c2C1c1cccnc1 (stereo not shown) | -7.52%
85 | CC(C)c1ccc(CN2CCN(CCO)CC2)cc1 | 2.22%
86 | COc1ccc(S(=O)(=O)N(C)CC(=O)N2CCN(c3ccc(F)cc3)CC2)cc1 | 15.9%
87 | CC(C)CN(CCNCc1c(C(=O)O)n(C)c2ccccc12)CC(C)C | 1.93%
88 | CCN(CC)CCn1c(NC(=O)C23CC4CC(CC(C4)C2)C3)nc2ccccc21 | 3.01%
89 | O=C(Cc1cccc2ccccc12)NCCn1ccc2ccccc21 | -3.51%
90 | O=C(O)[C@H]1CCCC[C@H]1C(=O)Nc1ccc(Nc2ccccc2)cc1 | -8.28%
91 | O=C(O)/C=C\C(=O)Nc1ccccc1C#Cc1ccc(Br)cc1 | 2.26%
92 | COc1ccc(-c2cc3ccc(OC)cc3s2)cc1 | -1.44%
93 | COc1ccc(-c2csc3ncn(Cc4ccccc4C)c(=O)c23)cc1OC | 5.09%
94 | CCCCc1ccc(-c2c(C#N)c(N)nc3c2CCCC3)s1 | -4.04%
95 | c1ccc(CNc2nc3ccccc3c3ccccc23)cc1 | 1.04%
96 | Cc1ccc(OCC(=O)NC2CCCC2)cc1C | -5.54%
97 | CCOC(=O)c1c(S(=O)(=O)NCc2cc(OC)ccc2OC)c(C)n(C)c1C | -4.9%
98 | O=C(O)C1CC=CCC1C(=O)Nc1ccc(N2CCN(c3ccc(F)cc3)CC2)cc1 (stereo not shown) | -0.00273%
99 | N#Cc1ccc(NC(=O)CSc2nc3ccccc3[nH]2)cc1 | -8.95%
100 | COCc1cc(C)nc2c1C(=O)N1C(=O)c3ccccc3C1N2Cc1ccccc1 (stereo not shown) | -5.72%
